Results from PubChem BioAssay AID485294 (National Center for Advancing Translational Sciences (NCATS), 2010).
Screen size: about 370,000 compounds; about 150 (0.041%) were called active. The inconclusive results got no clear call from the source; some entries with a clear call stand among them for comparison. Calls follow the shape of the dose curve; as a rule, active = well fitted inhibition curve with a large enough effect; inconclusive = small, poorly fitted or top-dose-only effect; inactive = flat fitted curve, though single readings scatter. No potency is given beside an inconclusive call; the fits are too rough.

biological target: Beta-lactamase (Escherichia coli (strain K12)) (UniProt P00811); experiment: qHTS Inhibitors of AmpC Beta-Lactamase (assay with detergent); settings: AmpC hydrolysis of nitrocefin, absorbance 480 nm, 0.01% Triton; activity change, negative = inhibition: at 114 µM (top of the series); also: nearly all actives have a fitted effect of over 25% in size;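 as to activity change, negative = inhibition: 0% = no-compound wells and -100% = no-enzyme wells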
Procedure, shortened: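 AmpC (5.3 nM in the dispensed reagent) in 20 mM phosphate pH 7.0 with 0.01% (detergent screen) or 0.0001% Triton X-100 was preincubated with compounds for 15 min at room temperature. Nitrocefin was then added from an 800 uM solution, and hydrolysis was followed at 480 nm.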
Potency is read from the fitted curve at half-maximal effect; tags tell the direction and shape of the fitted curve.

Sequence of UniProt P00811 (P00811 whole entry, looked up): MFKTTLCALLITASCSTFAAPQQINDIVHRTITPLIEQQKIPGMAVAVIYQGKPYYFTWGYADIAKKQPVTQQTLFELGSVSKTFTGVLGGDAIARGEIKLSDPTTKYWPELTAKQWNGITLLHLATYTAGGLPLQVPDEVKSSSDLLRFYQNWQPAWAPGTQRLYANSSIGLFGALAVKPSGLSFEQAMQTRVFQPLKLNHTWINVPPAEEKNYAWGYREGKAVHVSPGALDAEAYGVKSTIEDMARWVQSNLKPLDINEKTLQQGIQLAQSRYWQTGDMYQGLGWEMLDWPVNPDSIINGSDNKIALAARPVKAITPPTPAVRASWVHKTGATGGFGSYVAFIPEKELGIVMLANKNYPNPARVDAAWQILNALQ

Row | Compound | activity change, negative = inhibition | Potency
1 | COC(=O)c1ccccc1NC(=O)CCc1c(C)nc2c(c(C)nn2-c2ccccc2)c1C | inactive: 16.3% | 
2 | O=C(O)Cc1c(O)ccc2ccccc12 | inactive: 0.375% | 
3 | O=C(NCC(=O)N(Cc1cccs1)C(C(=O)NC1CCCCC1)c1ccco1)c1ccco1 (stereo not drawn) |  | inconclusive [inhibitor, partial curve]
4 | O=C(O)c1ccc(-c2nc3ccccc3[nH]2)cc1 | inactive: -4.89% | 
5 | CCOC(=O)c1c(NC(=O)c2ccc(S(=O)(=O)N(C)CC3CCCO3)cc2)sc2c1CC(C)(C)NC2(C)C (stereo not drawn) |  | inconclusive [inhibitor, partial curve, poor fit]
6 | C/C(=N\NC(=S)Nc1ccccc1C)c1cc2ccccc2o1 | inactive: -13.3% | 
7 | C#CCN(C(=O)c1cc(COc2ccc(C)c(C)c2)on1)C1CCCCC1 |  | inconclusive [inhibitor, full curve, poor fit]
8 | CN([C@@H](Cc1ccc(OS(=O)(=O)c2cccc3cnccc23)cc1)C(=O)N1CCN(c2ccccc2)CC1)S(=O)(=O)c1cccc2cnccc12 |  | inconclusive [inhibitor, full curve, poor fit]
9 | O=C(NCCCN1CCCC1)c1ccc2c(Cl)c3c(nc2c1)CCCC3 | inactive: 2.86% | 
10 | CCOc1ccc(C(CC(=O)Nc2cc(C)c(Cl)cc2OC)N2Cc3ccccc3C2=O)cc1OC (stereo not drawn) | inactive: 0.763% | 
11 | Cc1ccc(OCC(=O)Nc2c(C)nn(-c3ccccc3)c2C)c(Br)c1 | inactive: -13.4% | 
12 | Cc1ccc(C)n1-c1ccc(-c2nnco2)cc1 |  | inconclusive [inhibitor, partial curve, poor fit]
13 | O=C(OCC(=O)N1CCOCC1)c1ccc(Cl)cc1[N+](=O)[O-] |  | inconclusive [inhibitor, full curve]
14 | Nc1nnc(SCC(=O)Nc2cccnc2Cl)s1 |  | inconclusive [inhibitor, full curve]
15 | Cc1cnc(C(=O)OCC(=O)c2c[nH]c3ccccc23)cn1 | inactive: -0.064% | 
16 | O=C(Nc1ccon1)Nc1ccccc1C(F)(F)F |  | inconclusive [inhibitor, partial curve, poor fit]
17 | CCCCC(NC(=O)COc1cc2c(c3oc(=O)cc(C)c13)CCC(C)(C)O2)C(=O)O (stereo not drawn) | inactive: -6.42% | 
18 | O=C1CC(c2ccco2)CC2=C1C1c3ccccc3C(=O)N1c1ccccc1N2 (stereo not drawn) | inactive: 3.31% | 
19 | CC(C)c1ccc(-c2nnn(Cc3nc4ccccc4s3)n2)cc1 |  | inconclusive [inhibitor, full curve, poor fit]
20 | COc1ccc(S(=O)(=O)N2CCOCC2)cc1NC(=O)c1ccc(=O)[nH]c1 |  | inconclusive [inhibitor, full curve, poor fit]
21 | CCc1ccc(-c2nnn(CCC#N)n2)cc1 | inactive: -11.4% | 
22 | Clc1ccc(-n2ncc3c(N4CCCCCC4)ncnc32)cc1 |  | inconclusive [inhibitor, full curve, poor fit]
23 | CC1CC(C)CN(C(=O)COC(=O)c2nn(C)c(=O)c3ccccc23)C1 (stereo not drawn) |  | inconclusive [inhibitor, full curve]

Row | Compound | activity change, negative = inhibition | Potency
24 | O=C(Cn1cc(C(F)(F)F)ccc1=O)NCCc1ccc(Cl)cc1Cl |  | inconclusive [inhibitor, partial curve, poor fit]
25 | COCCn1nnnc1C(c1cccc(OC)c1OC)N1CCN(C(=O)c2ccco2)CC1 (stereo not drawn) | inactive: 0.659% | 
26 | c1ccc2c(N3CCOCC3)c3c(nc2c1)CCC3 |  | inconclusive [inhibitor, full curve, poor fit]
27 | COc1ccccc1NS(=O)(=O)c1cc([N+](=O)[O-])ccc1N/N=C/c1c[nH]c2ccccc12 | inactive: -2.69% | 
28 | O=C(O)C1=CC(=C(c2ccc(O)c(C(=O)O)c2)c2ccc(O)c(C(=O)O)c2)C=CC1=O |  | active: 8.91 µM
29 | CC(=O)Nc1ccc(S(=O)(=O)N2CCN(c3nnnn3-c3ccccc3)CC2)cc1 |  | inconclusive [inhibitor, full curve, poor fit]
30 | CC(=O)n1c(=O)c2ccccc2c(=O)n1-c1ccccc1 | inactive: 0.86% | 
31 | Cc1ccc(CSC2=Nc3ccccc3C3=NC(CC(=O)NCc4cccs4)C(=O)N23)cc1 (stereo not drawn) | inactive: 3.76% | 
32 | CCCCCC(=O)Nc1cccc(S(=O)(=O)NC2=NCCCCC2)c1 |  | inconclusive [inhibitor, full curve, poor fit]
33 | Fc1ccc(/C=N/n2c(COc3ccccc3)n[nH]c2=S)cc1 |  | inconclusive [inhibitor, full curve, poor fit]
34 | COc1cccc(OCCOCCOc2ccc(C)cc2[N+](=O)[O-])c1 |  | inconclusive [inhibitor, single point]
35 | COc1cccc(/C=C2\SC(=O)N(CCC(=O)NNC(=O)c3cccc(Cl)c3)C2=O)c1 | inactive: -8.56% | 
36 | O=P(CCCO)(Cc1ccccc1)Cc1ccccc1 |  | inconclusive [inhibitor, partial curve]
37 | COC(=O)CC1C(=O)NCCN1C(=O)CSc1nnc(Nc2ccc(C)cc2)s1 (stereo not drawn) |  | inconclusive [inhibitor, full curve, poor fit]
38 | CCN1CCN(c2cc(C(C)(C)C)nc3c(-c4ccccc4)c(C)nn23)CC1 | inactive: -0.545% | 
39 | CC(c1cccs1)N(Cc1ccco1)C(=S)Nc1ccc(F)c(Cl)c1 (stereo not drawn) |  | inconclusive [inhibitor, single point]
40 | CC(C)Oc1cccc(C(=O)NC(=S)Nc2cccnc2)c1 |  | inconclusive [inhibitor, single point]
41 | O=C(NCCc1ccncc1)C12CC3CC(CC(C3)C1)C2 | inactive: -7.79% | 
42 | CCc1nnc(NC(=O)CSc2nccn2-c2cccc(C)c2C)s1 |  | inconclusive [inhibitor, full curve, poor fit]
43 | Cc1ccc(-n2c(SCC(=O)OC(C)C)nnc2-c2cnccn2)cc1 |  | inconclusive [inhibitor, full curve, poor fit]
44 | CCCCCCN(C(=O)CCl)c1ccccc1 | inactive: -0.685% | 
45 | CCOc1ccc(NC(=O)Cn2c(=O)n(Cc3ccc(C(=O)NCc4ccc(C)cc4)cc3)c(=O)c3ccccc32)cc1 | inactive: -3.37% | 
46 | O=C1c2ccccc2C(Nc2ccc3c(c2)OCO3)N1Cc1ccco1 (stereo not drawn) |  | inconclusive [inhibitor, full curve, poor fit]

Row | Compound | activity change, negative = inhibition | Potency
47 | Cc1ccc(NC(=O)COC(=O)Cn2cnc3c2c(=O)n(C)c(=O)n3C)c(Cl)c1 |  | inconclusive [inhibitor, full curve, poor fit]
48 | COc1ccc(Nc2nc(-c3sc(N)nc3C)cs2)cc1 | inactive: -1.7% | 
49 | CN(CC(=O)Nc1c(Cl)cccc1Cl)C(=O)c1ccccc1-c1nc2ccccc2s1 |  | inconclusive [inhibitor, full curve, poor fit]
50 | COC(=O)c1cc(Cl)c(NC(=O)c2cc(OC)c(OC)c(OC)c2)cc1OC |  | inconclusive [inhibitor, full curve]
51 | CCOC(=O)c1nn(C23CC4CC(CC(C4)C2)C3)c2c1C(=O)N(c1ccc(C)cc1)C2=O |  | inconclusive [inhibitor, partial curve]
52 | COC(=O)/C(=C\c1ccc([N+](=O)[O-])o1)NC(=O)c1ccccc1 | inactive: -3.95% | 
53 | COc1cccc(-n2nc3c(=S)[nH]nc(C)c3c2C)c1 |  | inconclusive [inhibitor, single point]
54 | COc1ccc(OC)c(S(=O)(=O)N2CCC3(CC2)OCCN3S(=O)(=O)c2ccccc2)c1 |  | inconclusive [inhibitor, partial curve, poor fit]
55 | O=C(Cc1cccs1)Nc1cc(S(=O)(=O)N2CCCCC2)ccc1Cl |  | inconclusive [inhibitor, full curve]
56 | CC(C)Oc1ccc(CNCCC2(C(C)C)CCOC(C)(C)C2)cc1 (stereo not drawn) |  | inconclusive [inhibitor, full curve, poor fit]
57 | Cc1nc2c(C)cccn2c1C(=O)c1ccccc1 |  | inconclusive [inhibitor, full curve, poor fit]
58 | CN(C)CCCNCC(=O)Nc1ccccc1N1CCOCC1 |  | inconclusive [inhibitor, full curve]
59 | CC1(C)CC(NC(=O)COc2ccc(Cl)cc2Cl)CC(C)(C)N1 |  | inconclusive [inhibitor, full curve, poor fit]
60 | CCN(CC)c1ccc(/C=N/NC(=O)c2c(Cl)cnn2C)c(O)c1 | inactive: -11.4% | 
61 | CCCCC(=O)Nc1ccc(C(=O)Nc2cccnc2)cc1 |  | inconclusive [inhibitor, full curve]
62 | Cc1onc(-c2ccccc2)c1C(=O)NCc1cccnc1 |  | inconclusive [inhibitor, full curve, poor fit]
63 | CCOc1ccc(C)cc1S(=O)(=O)NC1CCCCC1 |  | inconclusive [inhibitor, single point]
64 | CCOc1ccc(/C=C/c2nc(C#N)c(Nc3ccc(OCC)cc3)o2)cc1 | inactive: 7.21% | 
65 | O=C(CSc1ccc(-c2cccc([N+](=O)[O-])c2)nn1)N1CCCCC1 |  | inconclusive [inhibitor, full curve]
66 | O=C(CCN1CCOCC1)Nc1cc(C(=O)Nc2ccccc2F)ccc1N1CC2CC(C1)c1cccc(=O)n1C2 (stereo not drawn) |  | inconclusive [inhibitor, full curve, poor fit]
67 | O=C(CCCn1ccc2cc(S(=O)(=O)N3CCCC3)ccc21)NCc1ccc(Cl)cc1 |  | inconclusive [inhibitor, single point]
68 | CCN(CC)CCCN1C(=O)C(O)=C(C(=O)c2ccco2)C1c1ccc(OC(C)C)cc1 (stereo not drawn) |  | inconclusive [inhibitor, single point]
